# Results reported in PubChem BioAssay (NCATS).
# Inconclusive means that the source gave no clear call. Such entries were picked first, then a sample of the others. No potency is given beside an inconclusive call; the fits are too rough. Activity calls are given as the source filed them. Calls come from the whole dose curve; as a rule, active = well fitted cell-killing curve with a large enough effect; inconclusive = small, poorly fitted or top-dose-only effect, or effect the other way; inactive = no such curve, though single readings can be large or run the other way.
# Assay: qHTS assay to identify small molecule inhibitors of chordoma cells - UCH-1 (AID 1259355); note: nearly all actives have a fitted effect of over 55% in size; for potency: series mostly up to about 46 µM
# Procedure, shortened: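 Seed 800 cells per well; incubate overnight at 37 C, 5% CO2. Add test compounds (15 concentrations), then the auranofin–topoisomerase-agent combination. Incubate 48hr, add CellTiter-Glo, wait 30min, read luminescence.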
# Potency is the fitted concentration of half-maximal effect; tags give direction and shape of the fitted curve.
row,SMILES,Potency
1,NC[C@H]1O[C@H](O[C@H]2[C@H](O)[C@@H](O[C@H]3O[C@H](CO)[C@@H](O)[C@H](N)[C@H]3O)[C@H](N)C[C@@H]2N)[C@H](O)[C@@H](O)[C@@H]1O,inactive
2,CC(C)COC(=O)c1ccc(N)cc1,"inconclusive [cytotoxic, full curve, poor fit]"
3,COc1cnc(NS(=O)(=O)c2ccc(N)cc2)nc1,inactive
